Reference: patent publication US20060018921A1, “Histone deacetylase inhibitors and cognitive applications” (priority 2004, published 2006)
Entries after “also recorded” stand apart in the source; their conditions may differ. Starred links: 1 amine or outer side, 2 acyl side, 3 side chain; linkers in the order of their positions; H or OH if unused. Positions of bridges follow the written chain, without caps; N, C: chain ends. Non-standard residues stand in square brackets, D forms with d. Residues, ends and D or L forms follow the SMILES beside them. Chains are numbered I, II in the order given. Actinocin(9to1) = Cc1c2oc3c(C)ccc(C(=O)[*:1])c3nc-2c(C(=O)[*:2])c(N)c1=O; NMeV = CN[C@H](C(=O)O)C(C)C; Sar = CNCC(=O)O

Tested on: Schaffer-collateral synapses in area CA1 of the hippocampus
Experiment: Slice electrophysiology, induction of LTP
Details: for LTP induced by 2, 100 Hz tetani: sodium butyrate 300 μM for 40 min beginning 20 min before LTP induction, vs ACSF; for LTP after 2 h (late phase) with transcription inhibitor alone / LTP up to 2 h after induction (early-phase) with transcription inhibitor alone: DRB 60 μM or actinomycin D 25 μM from 20 min prior to induction and for 3 h afterward; for enhancement of LTP normally seen with TSA, in the presence of transcription inhibitor: DRB 60 μM or actinomycin D 25 μM with TSA 1.65 μM

SMILES	LTP induced by 2, 100 Hz tetani	LTP induced by 2, 100 Hz tetani (listed as NaB)	LTP after 2 h (late phase) with transcription inhibitor alone	LTP up to 2 h after induction (early-phase) with transcription inhibitor alone	LTP after 2 h (late phase) with transcription inhibitor alone (listed as ActD)	LTP up to 2 h after induction (early-phase) with transcription inhibitor alone (listed as ActD)	enhancement of LTP normally seen with TSA, in the presence of transcription inhibitor	enhancement of LTP normally seen with TSA, in the presence of transcription inhibitor (listed as ActD)
CCCC(=O)[O-].[Na+] [sodium butyrate]	significantly enhanced	enhanced induction of LTP	–	–	–	–	–	–
Cc1c2oc3c(C)ccc(C(=O)N[C@@H]4C(=O)N[C@H](C(C)C)C(=O)N5CCC[C@H]5C(=O)N(C)CC(=O)N(C)[C@@H](C(C)C)C(=O)O[C@@H]4C)c3nc-2c(C(=O)N[C@@H]2C(=O)N[C@H](C(C)C)C(=O)N3CCC[C@H]3C(=O)N(C)CC(=O)N(C)[C@@H](C(C)C)C(=O)O[C@@H]2C)c(N)c1=O [actinomycin D, Actinomycin D] (I: T[dV]P[Sar][NMeV] / II: T[dV]P[Sar][NMeV]; ester I:1-I:C, II:1-II:C; linker I:N-II:N via Actinocin(9to1))	–	–	decays to basal levels of synaptic efficacy 2 h after high-frequency stimulation	normal early-phase LTP	decayed to basal levels after 2 h	normal	completely inhibits the enhancement of LTP normally seen with TSA	blocked the effect of TSA on LTP at all times
OC[C@H]1O[C@@H](n2cnc3cc(Cl)c(Cl)cc32)[C@H](O)[C@@H]1O [DRB, 5,6-dichlorobenzimidazole riboside]	–	–	decayed to unpotentiated levels by 3 h after induction; also recorded: decays to basal levels of synaptic efficacy 2 h after high-frequency stimulation	–	–	–	–	–
